Measured values taken from paper PMC5515408.
The list shows a part of the results. At the low end of the ranking the order means little.

What follows are sequences tested against MAX:MAX (p21) (UniProt P61244-2) (assay: protein-binding microarray (anti-MAX antibody)). Settings: PBM: 15 mM Tris-HCl pH 7.5, 100 mM KCl, 0.075% NP40, 7.5 mM beta-mercaptoethanol, 375 ng/ul BSA, 8 ng/ul poly(dA-dT):(dA-dT), 550 ng complex, 60 min, room …; high values mean tight binding; double strand, one strand shown; sequences stand for … in CCGGC…TTAATAGCTAAGATTACTATATCGACG.
TGACATTTGGTA showed a binding signal (log2 normalized fluorescence) of 0.0917. TGACGCGCGGTG was tested, and the binding signal (log2 normalized fluorescence) was 1.58. For TGAGAGCTAGTA, the binding signal (log2 normalized fluorescence) was -1.06. For TGACTGCTAGTA, the binding signal (log2 normalized fluorescence) was -0.306. With TGAGGATCGGTA the binding signal (log2 normalized fluorescence) was -0.777. TGAGTCGAAGTA was tested, and the binding signal (log2 normalized fluorescence) was -1.05. In the case of TGAAAGCACGTA, the binding signal (log2 normalized fluorescence) is reported as 0.817. TGTCACTTGGTA was tested, and the binding signal (log2 normalized fluorescence) was 0.0592. TGACCCGTGGTT gave a binding signal (log2 normalized fluorescence) of 2.36. TGAGCCAGGGTA showed a binding signal (log2 normalized fluorescence) of -1.24. Sequence TGACGACCGGTA has a binding signal (log2 normalized fluorescence) of -0.233. Work on TGATGCCGCGTA yielded a binding signal (log2 normalized fluorescence) of 0.00246. In the case of GTTCAGCAAAAA, the binding signal (log2 normalized fluorescence) is reported as -0.213. For TGAGAGTACGTA, the binding signal (log2 normalized fluorescence) was -0.679. For TGACTCGAAGTA, the binding signal (log2 normalized fluorescence) was -0.426. With TGAGAGGTGTTA the binding signal (log2 normalized fluorescence) was -0.147. For TGAGCCTGTGTA, the binding signal (log2 normalized fluorescence) was -0.226. Work on TGAACGTCTGTA yielded a binding signal (log2 normalized fluorescence) of -0.0331. TGAACTCTTGTA gave a binding signal (log2 normalized fluorescence) of -0.55. TGAAGTGGCGTA showed a binding signal (log2 normalized fluorescence) of -0.442. TGACTTTCAGTA showed a binding signal (log2 normalized fluorescence) of -0.978. In the case of TGACGCGTGGTT, the binding signal (log2 normalized fluorescence) is reported as 3.21. TGAAATTGCGTA showed a binding signal (log2 normalized fluorescence) of -0.658. Sequence TGAGGTTCAGTA has a binding signal (log2 normalized fluorescence) of -0.623. Work on TGACCCAGTGTA yielded a binding signal (log2 normalized fluorescence) of -0.0826. TGACTTATCGTA was tested, and the binding signal (log2 normalized fluorescence) was -0.514. For TGAAATATAGTA, the binding signal (log2 normalized fluorescence) was -1.09. Sequence TGATTCGATGTA has a binding signal (log2 normalized fluorescence) of -0.732. Sequence TGAGGTTTTGTA has a binding signal (log2 normalized fluorescence) of -1.2. Sequence TGACAGGTCGTA has a binding signal (log2 normalized fluorescence) of 0.0186. With AGACTCGTCGTA the binding signal (log2 normalized fluorescence) was -0.0778. TGAGAAAGGGTA showed a binding signal (log2 normalized fluorescence) of -1.02. TGACTGCCTGTA was tested, and the binding signal (log2 normalized fluorescence) was 0.0499. With TGATACGGGGGA the binding signal (log2 normalized fluorescence) was 1.06. TGACACCGCGTA gave a binding signal (log2 normalized fluorescence) of 0.324. For TGACACATGATA, the binding signal (log2 normalized fluorescence) was 2.95. Sequence TGGAACGTGGTA has a binding signal (log2 normalized fluorescence) of 2.99. TGATCCCTTGTA gave a binding signal (log2 normalized fluorescence) of -0.907. Work on TGATCCTCAGTA yielded a binding signal (log2 normalized fluorescence) of -0.95. With TGAATTCGCGTA the binding signal (log2 normalized fluorescence) was -0.831. For TGAAGATGCGTA, the binding signal (log2 normalized fluorescence) was -0.322. TGATGGATCGTA gave a binding signal (log2 normalized fluorescence) of -0.47. With TGACTCACTGTA the binding signal (log2 normalized fluorescence) was -0.209. In the case of TGATGTGACGTA, the binding signal (log2 normalized fluorescence) is reported as 0.536. TGAGCTGTTGTA showed a binding signal (log2 normalized fluorescence) of -0.74. Work on TGTAGCGTGGTA yielded a binding signal (log2 normalized fluorescence) of 3.02. For GGACACGTGGTA, the binding signal (log2 normalized fluorescence) was 3.33. For TGAACCTTCGTA, the binding signal (log2 normalized fluorescence) was -0.525. With TGAAGCTATGTA the binding signal (log2 normalized fluorescence) was -0.869. With TGATTACAAGTA the binding signal (log2 normalized fluorescence) was -0.837. TGACACGGGGTC showed a binding signal (log2 normalized fluorescence) of 3.1. With TGATATCCGGTA the binding signal (log2 normalized fluorescence) was -1.21. TGAAGCCAGGTA was tested, and the binding signal (log2 normalized fluorescence) was -0.487. TGGATCGTGGTA was tested, and the binding signal (log2 normalized fluorescence) was 1.39. TGAGTCTCTGTA was tested, and the binding signal (log2 normalized fluorescence) was -0.778. Work on TGAAAGTGGGTA yielded a binding signal (log2 normalized fluorescence) of -0.566. AGACACGTTGTA showed a binding signal (log2 normalized fluorescence) of 3.21. TGATAAGTTGTA showed a binding signal (log2 normalized fluorescence) of -0.958. TGATAGACTGTA showed a binding signal (log2 normalized fluorescence) of -0.915. Sequence TGACCCTCAGTA has a binding signal (log2 normalized fluorescence) of -0.595. TGATACTATGTA was tested, and the binding signal (log2 normalized fluorescence) was -0.934. Work on CGCCACGTGGTA yielded a binding signal (log2 normalized fluorescence) of 3.32. TGAGGTCCGGTA gave a binding signal (log2 normalized fluorescence) of -0.855. TGAATCATTGTA was tested, and the binding signal (log2 normalized fluorescence) was -0.393. For TGAATAATAGTA, the binding signal (log2 normalized fluorescence) was -1.18. Sequence TGAAATTTAGTA has a binding signal (log2 normalized fluorescence) of -1.17. TGACACGTGTAT was tested, and the binding signal (log2 normalized fluorescence) was 3.21. TCACACGTGGGC gave a binding signal (log2 normalized fluorescence) of 3.27. For TGAAGAGTAGTA, the binding signal (log2 normalized fluorescence) was -0.902. For TGATATCTGGTA, the binding signal (log2 normalized fluorescence) was -1.04. Work on GGACACGGTGTA yielded a binding signal (log2 normalized fluorescence) of 2.21. TGAAGGACGGTA showed a binding signal (log2 normalized fluorescence) of -0.466. For TGATGGCCGGTA, the binding signal (log2 normalized fluorescence) was 0.391. TGAGATCGAGTA was tested, and the binding signal (log2 normalized fluorescence) was -0.743. TGAGGTTATGTA was tested, and the binding signal (log2 normalized fluorescence) was -0.767.
